Test results from US20220281976A1 (Alector, published 2022).
Residue numbers refer to the chain shown, from its start.

B1: C-4 (antibody, V domains shown)
VH: [no letters for about 100 residues]QGEYARWYHGMDVWGQGTTVTVSS
VL: DIVMTQSPDSLAVSLGERATINCKSSQSVLYSSNNKNYLAWYQQKPGQPPKLLIYWASTRESGVPDRFSGSGSGTDFTLTISSLQAEDVAVYYCQQDFSDPITFGGGTKVEIK
notes: human IgG1
B2: C-78 (antibody, V domains shown)
VH: [no letters for about 100 residues]HGGSPMLYYYGMDVWGQGTTVTVSS
VL: B1 VL with S83R, Q85E, A86P, V89F, D97L, F98Y, S99R, D100S, I102P
notes: human IgG1
B3: C-93 (antibody, V domains shown)
VH: [no letters for about 100 residues]GGADRGYGMDVWGQGTTVTVSS
VL: B1 VL with D97H, F98Y, S99Y, D100H, I102P
notes: human IgG1
B4: C-94 (antibody, V domains shown)
VH: [no letters for about 100 residues]LGGSHASLDLWGRGTLVTVSS
VL: B1 VL with D97L, F98Y, I102P
notes: human IgG1
B5: C-2 (antibody, V domains shown)
VH: [no letters for about 100 residues]GPRQEYGGLDLWGRGTLVTVSS
VL: B1 VL with F98Y, S99L, D100S
notes: human IgG1

What follows are binders tested against T1, human CD33 (human, UniProt P20138) (assay: cell-based or functional assay).

Compared with B1, B2 is lower in “Percent CD33 Surface Expression, DC % CD33” value: 91.8% for the first, 67.5% for the second.

Compared with B3, B4 is lower in “Percent CD33 Surface Expression, DC % CD33” value: 92.5% for the first, 89.5% for the second.

B5 was tested, and the “Percent CD33 Surface Expression, DC % CD33” value was 102%.

Compared with B1, B5 is higher in “Percent CD33 Surface Expression, Macrophage % CD33” value: 96.1% for the first, 105% for the second.

First: B1
Second: B2
The “Percent CD33 Surface Expression, Monocyte % CD33” value of the first is lower: 93.9% for the first, 95.4% for the second.

First: B3
Second: B4
The “Percent CD33 Surface Expression, Monocyte % CD33” value of the first is lower: 82.7% for the first, 82.9% for the second.

With B5 the “Percent CD33 Surface Expression, Monocyte % CD33” value was 96.3%.

The binders below were run against T2, mouse CD33 Fc fusion protein (mouse, UniProt Q63994 18-240, limits assumed) (assay: ForteBio BLI or MSD-SET).
T2 construct: also called mCD33-Fc
T2 sequence: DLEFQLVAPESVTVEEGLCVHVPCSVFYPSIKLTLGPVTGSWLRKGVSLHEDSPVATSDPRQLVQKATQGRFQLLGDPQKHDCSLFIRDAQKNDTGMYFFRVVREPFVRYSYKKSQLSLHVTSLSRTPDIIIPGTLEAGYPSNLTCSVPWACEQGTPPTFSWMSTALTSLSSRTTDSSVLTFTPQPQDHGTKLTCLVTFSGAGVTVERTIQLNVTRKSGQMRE

B1: no binding (tested: 100 nM).
B2: no binding (tested: 100 nM).
B3: no binding (tested: 100 nM).
B4: no binding (tested: 100 nM).
B5: no binding (tested: 100 nM).

The binders below were run against T3, human CD33 Fc fusion protein (human, UniProt P20138 18-259) (assay: ForteBio BLI or MSD-SET, IgG, avid;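 further: Anti-CD33 IgG affinity by BLI, IgG captured on AHQ sensors with antigen in solution and a one-to-one kinetic fit, or by MSD solution equilibrium titration with quadratic fit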).
T3 construct: also called hCD33-Fc; human CD33/Fc chimera (R&D Systems)

First: B1
Second: B2
The Kd of the first is 2.8-fold higher: 2.52 nM for the first, 0.913 nM for the second. The second binds more tightly here.

B3 and B4 are within 1.5-fold of each other in Kd: 19.5 nM for the first, 17.5 nM for the second.

Binder B5 has a Kd of 4.39 nM.

What follows are binders tested against T1, human CD33 (assay: flow cytometry, human primary T cells;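 further: binding of anti-CD33 antibodies at 10 ug/ml to human primary T cells, 1 h on ice, detected with PE-labelled secondary antibody, read as flow cytometry MFI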).
T1 sequence (P20138 18-364): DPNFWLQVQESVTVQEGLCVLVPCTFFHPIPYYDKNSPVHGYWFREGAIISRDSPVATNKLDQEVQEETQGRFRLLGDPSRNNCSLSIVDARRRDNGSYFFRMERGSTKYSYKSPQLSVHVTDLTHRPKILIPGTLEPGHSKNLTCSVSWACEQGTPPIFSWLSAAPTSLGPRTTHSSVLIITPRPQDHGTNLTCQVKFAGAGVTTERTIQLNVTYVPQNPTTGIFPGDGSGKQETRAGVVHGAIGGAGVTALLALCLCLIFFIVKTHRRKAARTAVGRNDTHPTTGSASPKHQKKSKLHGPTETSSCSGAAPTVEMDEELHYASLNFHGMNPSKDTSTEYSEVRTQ

Going from B1 to B2, the “T cell MFI” value falls from 667 to 217.

First: B3
Second: B4
The “T cell MFI” value of the first is higher: 146 for the first, 132 for the second.

With B5 the “T cell MFI” value was 974.

What follows are binders tested against T1, human CD33 (assay: flow cytometry, human primary monocytes;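 further: binding of anti-CD33 antibodies at 10 ug/ml to human primary monocytes, 1 h on ice, detected by PE-labelled secondary antibody, flow cytometry readout as mean fluorescence intensity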).
Design: reference not given here

First: B1
Second: B2
The “Monocyte MFI” value of the first is lower: 98 for the first, 711 for the second.

First: B3
Second: B4
The “Monocyte MFI” value of the first is higher: 730 for the first, 585 for the second.

B5 was tested, and the “Monocyte MFI” value was 119.

These binders were tested against T1, human CD33 (assay: flow cytometry, human primary macrophages;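 further: binding of CD33 antibodies at 10 µg/ml to human primary macrophages, 1 h on ice, detected with PE-labelled secondary antibody by flow cytometry, reported as MFI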).

Compared with B1, B2 is lower in “Macrophage MFI” value: 632 for the first, 565 for the second.

Going from B3 to B4, the “Macrophage MFI” value falls from 494 to 435.

With B5 the “Macrophage MFI” value was 629.

Each binder was assayed against T1, human CD33 (assay: flow cytometry, human primary dendritic cells;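 further: binding of anti-CD33 antibodies (10 ug/ml, 1 h on ice) to human primary dendritic cells, detected with a PE-labelled secondary antibody, reported as flow cytometry MFI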).

First: B1
Second: B2
The “DC MFI” value of the first is higher: 699 for the first, 45 for the second.

Going from B3 to B4, the “DC MFI” value falls from 62 to 46.

With B5 the “DC MFI” value was 601.

What follows are binders tested against T4, human monomeric His tagged CD33 protein (human, UniProt P20138 18-259) (assay: ForteBio BLI or MSD-SET, IgG, monomeric antigen;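 further: BLI: antibodies captured on AHQ sensors, 100 nM antigen association 5 min, dissociation 5 min, 1:1 fit. MSD-SET: antigen fixed at 50 pM, antibody titrated, quadratic fit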).
T4 construct: also called hCD33-His

Compared with B1, B2 is 2.2-fold lower in Kd: 13.3 nM for the first, 5.92 nM for the second. The second binds more tightly here.

For B5, the Kd was 26.5 nM.

The binders below were run against T3, human CD33 Fc fusion protein (assay: RBC adhesion to plate-bound CD33-Fc; antibody 0.5 ug/ml;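 further: Plate-coated CD33-Fc preincubated 1 h with antibody, then red blood cells added for 1 h at room temperature, adherent cells lysed and quantified via peroxidase activity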).
T3 sequence (P20138 18-259 limits assumed): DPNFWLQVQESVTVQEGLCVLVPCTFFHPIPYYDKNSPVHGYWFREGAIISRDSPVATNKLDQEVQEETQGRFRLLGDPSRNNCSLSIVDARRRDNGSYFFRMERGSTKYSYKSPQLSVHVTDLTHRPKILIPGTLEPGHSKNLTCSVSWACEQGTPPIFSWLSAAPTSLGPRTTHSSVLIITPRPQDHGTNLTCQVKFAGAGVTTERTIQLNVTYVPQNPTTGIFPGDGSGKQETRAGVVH

Compared with B1, B2 is lower in “Percent RBC Binding to CD33” value: 94.7% for the first, 66.2% for the second.

Going from B3 to B4, the “Percent RBC Binding to CD33” value falls from 83.8% to 81.9%.

In the case of B5, the “Percent RBC Binding to CD33” value is reported as 83.1%.

These binders were tested against T3, human CD33 Fc fusion protein (assay: RBC adhesion to plate-bound CD33-Fc; antibody 1.0 ug/ml;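 further: red blood cells adhering to plate-coated CD33-Fc after 1 h antibody pretreatment, then 1 h at room temperature, bound cells read as peroxidase activity after lysis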).

First: B1
Second: B2
The “Percent RBC Binding to CD33” value of the first is higher: 89% for the first, 83.6% for the second.

Going from B3 to B4, the “Percent RBC Binding to CD33” value falls from 100% to 94.2%.

B5 was tested, and the “Percent RBC Binding to CD33” value was 90.4%.
